Assay results published in PMC4336329 (PLoS ONE, 2015).
In all, about 310,000 compounds went through this assay and about 14,000 (4.5%) showed an effect of 50% or more. The effect is printed as a negative number. The list shows a part of the results.

What follows are molecules tested against human ether-à-go-go-related gene (hERG) potassium channel (human, UniProt Q12809) (assay: primary screen, population patch clamp on CHO cells stably expressing hERG).
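Further: peak tail current of the secondary pulse compared with the same well before compound.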

human ether-à-go-go-related gene (hERG) potassium channel, sequence (Q12809 whole entry, looked up): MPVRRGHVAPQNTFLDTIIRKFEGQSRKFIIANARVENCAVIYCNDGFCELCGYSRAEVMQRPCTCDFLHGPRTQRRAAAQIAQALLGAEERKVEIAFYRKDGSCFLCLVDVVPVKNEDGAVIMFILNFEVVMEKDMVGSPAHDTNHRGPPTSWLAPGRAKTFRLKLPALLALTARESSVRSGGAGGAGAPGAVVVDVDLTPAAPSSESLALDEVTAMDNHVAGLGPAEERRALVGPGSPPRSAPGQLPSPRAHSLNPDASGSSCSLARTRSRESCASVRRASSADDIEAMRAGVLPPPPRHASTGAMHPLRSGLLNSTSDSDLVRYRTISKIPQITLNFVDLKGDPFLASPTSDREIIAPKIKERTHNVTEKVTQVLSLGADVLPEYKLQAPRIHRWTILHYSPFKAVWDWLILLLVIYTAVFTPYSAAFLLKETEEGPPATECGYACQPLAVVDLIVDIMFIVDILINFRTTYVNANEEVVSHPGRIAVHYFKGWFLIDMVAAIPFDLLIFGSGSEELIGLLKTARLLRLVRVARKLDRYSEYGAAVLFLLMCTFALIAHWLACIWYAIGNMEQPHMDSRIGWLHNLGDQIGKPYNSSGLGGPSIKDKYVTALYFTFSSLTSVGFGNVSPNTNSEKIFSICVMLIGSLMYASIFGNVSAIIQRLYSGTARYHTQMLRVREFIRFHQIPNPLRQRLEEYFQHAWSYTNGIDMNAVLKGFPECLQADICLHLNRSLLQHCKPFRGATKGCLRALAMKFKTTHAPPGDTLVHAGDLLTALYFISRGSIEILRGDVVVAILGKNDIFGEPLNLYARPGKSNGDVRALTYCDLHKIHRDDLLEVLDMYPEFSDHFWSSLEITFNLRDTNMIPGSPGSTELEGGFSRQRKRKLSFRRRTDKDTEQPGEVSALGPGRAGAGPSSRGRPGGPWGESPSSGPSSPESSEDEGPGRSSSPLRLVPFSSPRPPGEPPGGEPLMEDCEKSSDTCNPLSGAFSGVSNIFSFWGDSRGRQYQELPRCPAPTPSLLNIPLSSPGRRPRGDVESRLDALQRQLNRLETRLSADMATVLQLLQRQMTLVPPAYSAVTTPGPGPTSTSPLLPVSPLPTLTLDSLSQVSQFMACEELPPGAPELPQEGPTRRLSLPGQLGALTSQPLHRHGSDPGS

Compound | hERG current change (%, negative = inhibition) at 10uM [%]
O=C(NCC1CCN(Cc2cccc(Cl)c2)CC1)C1CCCN(c2ncnc3c2nc2n3CCCCC2)C1 (stereo not shown) | -44.5
CCOc1cc(NC(=S)NCCCN2CCOCC2)c(OCC)cc1NC(=O)c1ccccc1 | 26
CCOc1ccccc1NC(=S)N1CCN(c2cccc(C)c2C)CC1 | 8.15
C/C(=N\OC(=O)Nc1ccc(Cl)cc1)c1ncc(C(F)(F)F)cc1N1CCOCC1 | -6.53
CCOC(=O)c1cccc(S(=O)(=O)N2CCCC2)c1 | 8.7
CSc1ccccc1OCc1cc(C(=O)NC(C)CCn2cccn2)no1 (stereo not shown) | -0.424
CCc1ccc(C(=O)N2CCN(S(=O)(=O)c3sc(C(=O)O)c(C)c3C(=O)O)CC2)cc1 | 11.2
O=C1NC2(CCCCO2)CO1 (stereo not shown) | 13.5
Cc1ccc(NC(=O)CSc2nnc(-c3ccncc3)n2N)cc1C | 11.7
COC(=O)c1[nH]c2c(c1C)C(=O)CCC2 | 21.1
CCN(CC)c1ccc2ccc(=O)oc2c1 | 2.55
Cc1ccc(OCc2cc(C(=O)N3CCN(CC(=O)NC(C)C)CC3)no2)cn1 | 18.5
Cc1ccc(NC(=O)CCC(=O)NNC(=O)CCc2ccccc2)c(C)c1 | 16.7
COc1ccc(/C(O)=C2/C(=O)C(=O)N(c3ncccn3)C2c2ccc(C(C)(C)C)cc2)cc1 (stereo not shown) | -2.49
COc1ccc(OC)c(N=CC2=C(O)CC(C)(C)CC2=O)c1 | 0.766
CNC(=S)N=Nc1c(O)[nH]c2ccc(C(C)C)cc12 | 3.79
CCN(CC)CCN(C)C(=O)CCc1nnc(-c2ccc(C)s2)o1 | -7.35
Cn1c(=O)c2c(ncn2CC(COCc2ccccc2Cl)OCc2ccccc2Cl)n(C)c1=O (stereo not shown) | -33.6
O=C(Cc1ccccc1)NNC(=S)NC(=O)c1cccnc1 | 14.7
Cc1cccc(C)c1NC(=O)C1=C(O)c2sccc2N(C)S1(=O)=O | 7.42
COC(=O)[C@H](CC(C)C)NC(=O)NC1CCCc2ccccc21 (stereo partly shown) | 15
COc1ccc(C)cc1NC(=O)CSc1nnc(COc2ccc(C)cc2)n1Cc1ccco1 | -27.1
COc1ccc(CNC(=O)C(C)Sc2nc3ccccc3c(=O)n2CC2CCCO2)cc1 (stereo not shown) | -78.7
Cc1ccc2cc3c(nc2c1)OCC3 | 2.26
O=S(=O)(c1ccc2c(c1)CCCN2)N1CCCC2CCCCC21 (stereo not shown) | -1.49
